# Screen size: about 50,000 compounds; about 800 (1.6%) showed an effect of 50% or more. This is one part of the list.
# Target: Bcl-2-like protein 10 (Homo sapiens) (UniProt Q9HD36)
# Assay: Phenotype converters, Bcl-B/TR3 peptide binding displacement, primary biochemical FP (AID 1240);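 further: 0% = Bcl-B with tracer peptide and DMSO and 100% = tracer peptide lacking Bcl-B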
# Settings: GST-Bcl-B / FITC-TR3 peptide fluorescence polarization; stronger effect = higher value; compound at 3.75 mg/L
# Sequence of UniProt Q9HD36 (Q9HD36 whole entry, looked up): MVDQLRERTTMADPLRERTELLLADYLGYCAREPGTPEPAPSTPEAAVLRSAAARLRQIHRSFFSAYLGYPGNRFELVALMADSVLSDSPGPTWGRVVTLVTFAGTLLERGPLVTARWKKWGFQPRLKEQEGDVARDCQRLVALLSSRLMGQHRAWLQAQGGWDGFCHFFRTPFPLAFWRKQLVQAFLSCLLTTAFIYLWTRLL
row,SMILES,displacement [%]
1,COc1cccc(C(=O)NCc2ccc3c(c2)OCO3)c1,-5.4
2,CN1CCN(CCCOc2cc(Cl)ccc2Cl)CC1,-7.1
3,CCOC(=O)C1=C(C)N=c2s/c(=C\c3ccc(N4CCOCC4)o3)c(=O)n2C1c1ccc(SC)cc1 (stereo unspecified),-55.4
4,O=C(Nc1ccccc1)Nc1nnc(-c2ccc([N+](=O)[O-])cc2)s1,9.1
5,CN1CCN(NC(=O)c2sc3ccccc3c2Cl)CC1,3.6
6,O=C(CCc1ccccc1)Nc1nnc(-c2ccncc2)s1,5.8
7,[O-][n+]1cc(O)c(Br)c2ccccc21,3.2
8,COc1cc2ccccc2cc1C(=O)Nc1cc(-c2nc3cc(C)ccc3o2)ccc1C,19.3
9,CS(=O)(=O)N(CC(=O)Nc1ccc(Oc2ccccc2)cc1)c1ccccc1,-6.7
10,Cc1ccc(Cn2c(NC(=O)c3cccs3)nc3ccccc32)cc1,0.8
11,O=C(Nc1ccccc1C(=O)O)c1ccc2c(c1)C(=O)N(c1ccc(Cl)cc1)C2=O,17.3
12,COc1ccc2ccccc2c1C(=O)/C=C/c1cccnc1,-3.8
13,CCOc1ccc(Cc2n[nH]c(=S)n2N)cc1,0.1
14,CCOc1ccccc1NC(=O)c1ccc(C)c([N+](=O)[O-])c1,11.6
15,O=C(N/N=C/c1ccccc1)c1cc(=O)[nH]c2ccccc12,-12.1
16,O=C(O)c1cc(-c2ccc(C=C3C(=O)c4ccccc4C3=O)o2)ccc1O,-23.4
17,Cc1ccc(NC(=O)C(=O)NCCN2CCOCC2)c(C)c1,13.6
18,O=C(CC(=O)c1ccccc1)Nc1ccc(C(=O)O)cc1,-5.3
19,CCOc1ccccc1CN(CCc1ccc2c(c1)OCO2)Cc1ccc(OC)c(OC)c1,-15.5
20,CN1C(=O)C(=Cc2ccccc2OC(=O)c2ccccc2)C(=O)N(C)C1=O,5.7
21,O=C(Nc1ccc(F)cc1)c1cccc(I)c1,8.5
22,O=C(CCCN1C(=O)c2cccc3cccc(c23)C1=O)Nc1ccc(OC(F)F)cc1,-4
23,CCCOc1ccc(N2C(=O)CC(N3CCN(c4cccc(C(F)(F)F)c4)CC3)C2=O)cc1 (stereo unspecified),3.2
24,Cc1ccc2c(c1)c1c(n2CCC(N)=O)C(=O)CCC1,-7.2

row,SMILES,displacement [%]
1,Cc1ccccc1CNC(=O)C(C)Sc1ccc(Cl)cc1 (stereo unspecified),-7.7
2,COc1cccc(CN2CCN(C3CCCCC3)CC2)c1,4.2
3,N=C1C(c2nc3ccccc3c(=O)[nH]2)=C(O)CN1Cc1ccccc1,3.1
4,Cc1oc(C(C)(C)C)cc1C(=O)Nc1cccc(O)c1,2.8
5,Cc1c(NC(=O)c2nn3c(c2Cl)NC(c2cccs2)CC3C(F)(F)F)c(=O)n(-c2ccccc2)n1C (stereo unspecified),-0.6
6,CSc1nc(C)c(CC(=O)c2ccc(Br)cc2)c(C)c1C#N,-16.1
7,CONC(=O)c1ccc(C(=O)c2cc(OC)ccc2OC)cc1,-6.6
8,CN1C(N)=NC(=O)C12COC(c1cccnc1)OC2 (stereo unspecified),7.8
9,Cc1ccc(/C=C/C(=O)N2CCN(c3ccc(Cl)cc3)CC2)cc1,-16
10,O=C(/C=C/c1ccc(F)cc1)NC(=S)Nc1cccc(O)c1,0.3
11,O=C(O)c1ccc([N+](=O)[O-])c2c1NC(C1CC=CCC1)C1CC=CC21 (stereo unspecified),8.7
12,CCOC(=O)C(N)Cc1ccc(O)c([N+](=O)[O-])c1 (stereo unspecified),5.9
13,CC1CCCCN1S(=O)(=O)c1ccccc1[N+](=O)[O-] (stereo unspecified),-5.5
14,COc1ccccc1/C=C(\C#N)C(=O)Nc1ccc(F)cc1,-5.9
15,NNC(=O)c1cc(-c2ccc(N)cc2)nc2ccc(Br)cc12,-9.7
16,COC(=O)C1=C(C)N=c2s/c(=C\c3ccc(OC)cc3OC)c(=O)n2C1c1ccccc1 (stereo unspecified),6.9
17,Cc1ccc(OCC(=O)NNC(=O)c2cccs2)c(C)c1,1.1
18,CCC(=O)N1c2ccccc2NC2=C(C(=O)CC(c3ccccc3)C2)C1c1cccnc1 (stereo unspecified),2.5
19,NC(=O)c1sc2cc(F)ccc2c1Cl,-7.3
20,O=C(Nc1nccs1)C1(c2ccccc2)CC1(Cl)Cl (stereo unspecified),-14.9
21,Cc1cccc(C(=O)N2CCc3ccccc32)c1,-9.3
22,Clc1cccc(Cl)c1SCCc1ccccn1,0.3
23,O=C(O)C1C2C=CC(C2)C1C(=O)Nc1cccnc1 (stereo unspecified),45.4
24,COc1ccc(OC)c(NC(=S)NC(NC(=O)CC(C)C)C(Cl)(Cl)Cl)c1 (stereo unspecified),-7.7

row,SMILES,displacement [%]
1,O=C(Nc1ccccc1C(=O)N=Nc1c(O)[nH]c2ccc([N+](=O)[O-])cc12)c1ccccc1,-1.3
2,O=C(/C=C/c1ccco1)Nc1ccc(Cl)cc1C(=O)O,12.2
3,COC(=O)C1=C(C)N(C)C(C)=C(C(=O)OC)C1c1ccsc1,-8.7
4,Cc1ccc(-c2nc3ncccc3o2)cc1N,5.8
5,O=C(CC1S/C(=N\N=C\c2ccco2)NC1=O)Nc1ccccc1F (stereo unspecified),8.6
6,O=C(N=Nc1c(O)n(Cc2ccccc2)c2ccccc12)c1ccc2ccccc2n1,14.9
7,O=C(C1=C(O)C(=O)N(c2nncs2)C1c1cccc([N+](=O)[O-])c1)c1cccs1 (stereo unspecified),7.1
8,N#C/C(=C\c1ccc(-c2ccccc2F)o1)c1nn(-c2ccccc2)c(N)c1C#N,13.8
9,Cc1c(NC(=O)C(C)Oc2ccccc2)cccc1NC(=O)C(C)Oc1ccccc1 (stereo unspecified),13.4
10,CC1=C(C(=O)Nc2ccc(Cl)cc2)C(c2ccc(F)cc2)NC(=O)N1 (stereo unspecified),10.9
11,COC(=O)c1cc(C(=O)NCc2ccccn2)cc([N+](=O)[O-])c1,6.5
12,CCCSc1nnc2n(-c3ccc(OC)cc3)c(=O)c3c4c(sc3n12)CCCC4,34.9
13,COc1ccccc1-c1coc2cc(OC(=O)c3c(C)cc(C)cc3C)ccc2c1=O,16.9
14,Nc1n[nH]c(N)c1N=Nc1ccccc1F,-12.8
15,CCOCCOC(=O)c1ccc(NC(=O)COc2ccc(C)cc2C)cc1,-9
16,COc1ccc(Cl)cc1NS(=O)(=O)c1ccc2ccccc2c1,-6.5
17,CSc1nnc(-c2ccccc2)c(-c2ccccc2)n1,-2.3
18,CCOc1ccc2ccccc2c1/C=N/N1C(=O)C2C(C1=O)C1C=CC2C12CC2 (stereo unspecified),4.8
19,Cc1cc(OCC(O)CNC(C)C)ccc1C(C)C (stereo unspecified),5.8
20,Cc1ccc(NC(=O)c2ccc3ccccc3c2)c([N+](=O)[O-])c1,9.1
21,CC1=NN(c2ccc(C(=O)O)cc2)C(=O)/C1=C\c1ccc(-c2cccc(C(=O)O)c2)o1,13.4
22,COc1ccc(OC)c(NC(=O)CN(c2cccc([N+](=O)[O-])c2)S(=O)(=O)c2ccccc2)c1,9.6
23,CCOC(=O)C1=C(C)N=c2s/c(=C\c3ccncc3)c(=O)n2C1c1cccc(OC)c1 (stereo unspecified),-17.5
